# From PubChem BioAssay (NCATS)
# Where “and” joins values, the source holds several entries; their conditions need not be identical. Equal values may be shown once. Inconclusive means that the source gave no clear call. Such entries were picked first, then a sample of the others. For some assays here: Potencies of inconclusive entries are doubtful fits and often do not repeat. Calls of active or inactive are those of the source. Unless noted, calls come from the whole dose curve; as a rule, active = well fitted curve in the direction sought with a large enough effect; inconclusive = small, poorly fitted or top-dose-only effect, or another doubt; inactive = no such curve, though single readings can be large; an effect the other way counts as inactive or inconclusive. Bridge positions count the residues as written; N and C are the ends. Square brackets hold non-standard residues; d marks the D form. Peptide text beside a SMILES is read from it. * marks the point of attachment. X1 = CCC(C)C(N)C1=NC(C(=O)*)CS1; dOrn = NCCC[C@@H](N)C(=O)O
# What was measured:
# [1] = molecular target: Aldehyde dehydrogenase, mitochondrial (Homo sapiens) (UniProt P05091); assay: qHTS for Inhibitors of the Aldehyde Dehydrogenase Family (ALDH2) Confirmatory screens (AID 2061303; active = well fitted inhibition curve with a large enough effect; inconclusive = small, poorly fitted or top-dose-only effect; inactive = no such curve, though single readings can be large or run the other way; title and protocol of this record describe different tests; note: nearly all actives have a fitted effect of over 45% in size; note: potency is the fitted concentration of half-maximal effect); conditions: ALDH inhibition qHTS; activity change, negative = inhibition: at 45.4 µM (top of the series)
# [2] = qHTS for Inhibitors of the Aldehyde Dehydrogenase Family (ALDH1A2, ALDH1A3, ALDH2, ALDH3A1) (AID 2061307); conditions: ALDH inhibition qHTS; activity change, negative = inhibition: at 50.3 µM (top of the series) unless noted; note: nearly all actives have a fitted effect of over 50% in size; for Potency: test system not described further here; potency is the fitted concentration of half-maximal effect
# [3] = molecular target: Aldehyde dehydrogenase, mitochondrial (Homo sapiens) (UniProt P05091); assay: qHTS for Inhibitors of the Aldehyde Dehydrogenase Family (ALDH2) Primary screen (AID 2061308); note: nearly all actives have a fitted effect of over 55% in size; note: potency is the fitted concentration of half-maximal effect
# [4] = molecular target: Retinal dehydrogenase 2 (Homo sapiens) (UniProt O94788); assay: qHTS for Inhibitors of the Aldehyde Dehydrogenase Family (ALDH1A2) Confirmation screens (AID 2061314); conditions: activity, negative = inhibition: at 45.9 µM (top of the series) unless noted; note: potency is the fitted concentration of half-maximal effect; nearly all actives have a fitted effect of over 65% in size
# [5] = molecular target: Aldehyde dehydrogenase 1A1 (Homo sapiens) (UniProt P00352); assay: qHTS for Inhibitors of the Aldehyde Dehydrogenase Family (ALDH1A1) Confirmatory screens (AID 2061316); conditions: activity change, negative = inhibition: at 47.3 µM (top of the series); note: potency is the fitted concentration of half-maximal effect; nearly all actives have a fitted effect of over 65% in size
# [6] = molecular target: Retinaldehyde dehydrogenase 3 (Homo sapiens) (UniProt P47895); assay: qHTS for Inhibitors of the Aldehyde Dehydrogenase Family (ALDH1A3) Primary screen (AID 2061315); conditions: ALDH inhibition qHTS; activity change, negative = inhibition: at 56 µM (top of the series) unless noted; note: potency is the fitted concentration of half-maximal effect
# [7] = BET inhibitor-based combinations targeting novel dependencies in MECOM-rearranged (r) AML: OCI-AML3 cell line (AID 2202232); conditions: CellTiter-Glo luminescence, 48 h; Potency: OCI-AML3 viability; series mostly up to 46 µM; note: nearly all actives have a fitted effect of over 35% in size
# Method in brief: (§1)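 500 cells/well; 11-pt dose curve; 48 h, standard incubator; CellTiter-Glo luminescence after 15 min RT; DMSO/empty-well normalization; AUC plus Z-AUC (mean-centered within each line).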
# [8] = BET inhibitor-based combinations targeting novel dependencies in MECOM-rearranged (r) AML: AML-191 cell line (AID 2202236; note: nearly all actives have a fitted effect of over 35% in size)
# Method in brief: as §1
# Tags give direction and shape of the fitted curve.
SMILES,Potency [1],Potency [2],Potency [3],Potency [4],Potency [5],Potency [6],Potency [7],Potency [8]
Cc1ccc2nc3sc(C(=O)NC4CCC(O)CC4)cc3cc2c1 (centres undefined),"inconclusive: 12.7 µM [inhibitor, partial curve]",active: 6.34 µM,"inconclusive: 22.4 µM [inhibitor, partial curve, poor fit]","inconclusive: 14.2 µM [inhibitor, partial curve]",active: 12.7 µM,–,–,–
Cc1ccn2c(Nc3ccc4c(c3)OCO4)c(-c3ccccn3)nc2c1,"inconclusive: 4 µM [inhibitor, partial curve]","inconclusive: 1.27 µM [inhibitor, full curve]","inconclusive: 10 µM [inhibitor, partial curve]","inconclusive: 0.634 µM [inhibitor, full curve, poor fit]","inconclusive: 12.7 µM [inhibitor, partial curve]",–,–,–
CN(Cc1ccco1)Cc1ccc(O)c2ncccc12,"inconclusive: 11.3 µM [inhibitor, partial curve]","inconclusive: 0.0316 µM [inhibitor, full curve, poor fit]","inconclusive: 11.2 µM [inhibitor, partial curve, poor fit]",active: 2.52 µM,"inconclusive: 12.7 µM [inhibitor, partial curve, poor fit]",–,–,–
O=C1Nc2ccc(C(=O)c3ccco3)cc2/C1=C/c1cc(Cl)c(O)c(Cl)c1,"inconclusive: 1.13 µM [inhibitor, full curve]","inconclusive: 3.57 µM [inhibitor, full curve]","inconclusive: 3.98 µM [inhibitor, full curve]","inconclusive: 794 nM [inhibitor, full curve] and active: 12.6 µM","inconclusive: 6.34 µM [inhibitor, partial curve]",–,–,–
Cc1ccsc1CN(C)c1ncnc2ccc(-c3ccoc3C)cc12,inactive,"inconclusive: 17.9 µM [inhibitor, partial curve, poor fit]","inconclusive: 25.1 µM [inhibitor, single point]",active: 11.3 µM,"inconclusive: 12.7 µM [inhibitor, partial curve, poor fit]",–,–,–
C=C1CCC2C(C)(COC(C)=O)CCCC2(C)C1CCC(C)CC(=O)O (centres undefined),"inconclusive: 8.78 µM [inhibitor, partial curve, poor fit]","inconclusive: 0.112 µM [inhibitor, full curve, poor fit]","inconclusive: 11.2 µM [inhibitor, partial curve]","inconclusive: 6.97 µM [inhibitor, partial curve]","inconclusive: 0.501 µM [inhibitor, full curve, poor fit]",inactive,–,–
CC(=O)Nc1sc2c(c1-c1nc3ccccc3s1)CCN(Cc1ccccc1)C2,inactive,"inconclusive: 2.25 µM [inhibitor, full curve]","inconclusive: 17.8 µM [inhibitor, partial curve, poor fit]","inconclusive: 1.13 µM [inhibitor, full curve]","inconclusive: 1.13 µM [inhibitor, full curve]",–,–,–
Cc1cc(C)nc(NC(=S)N2CCN(c3ccc4nsnc4c3)CC2)c1,active: 8.96 µM,"inconclusive: 4 µM [inhibitor, partial curve]",active: 7.94 µM,–,–,"inconclusive: 3.55 µM [inhibitor, full curve]",–,–
O=[N+]([O-])c1ccc(S(=O)(=O)c2ccc(Cl)cc2)nc1,active: 0.504 µM,active: 2.82 µM,active: 0.251 µM,–,–,"inconclusive: 2.51 µM [inhibitor, full curve]",–,–
Cc1ccc2nc3sc(C(=O)NCc4ccco4)cc3cc2c1,active: 12.7 µM,active: 11.3 µM,"inconclusive: 8.91 µM [inhibitor, partial curve, poor fit]",active: 7.12 µM,active: 7.12 µM,–,–,–
Cc1ccc(CNc2ncnc3ccc(-c4oc(-c5ccccc5)nc4C)cc23)o1,"inconclusive: 14.2 µM [inhibitor, partial curve, poor fit]",inactive,"inconclusive: 17.8 µM [inhibitor, partial curve]","inconclusive: 25.2 µM [inhibitor, partial curve]","inconclusive: 12.7 µM [inhibitor, partial curve]",–,–,–
CC(C)(C)C(=O)N1CCN(c2cccc(Nc3nn4c(=O)c5ccccc5nc4s3)c2)CC1,"inconclusive: 12.7 µM [inhibitor, partial curve]","inconclusive: 11.3 µM [inhibitor, partial curve]","inconclusive: 2.51 µM [inhibitor, full curve]",active: 25.2 µM,active: 7.98 µM,–,–,–
CCC(C)C(N)C1=NC(C(=O)N[C@@H](CC(C)C)C(=O)N[C@H](CCC(=O)O)C(=O)N[C@H](C(=O)N[C@H]2CCCCNC(=O)[C@H](CC(N)=O)NC(=O)[C@@H](CC(=O)O)NC(=O)[C@H](Cc3cnc[nH]3)NC(=O)[C@@H](Cc3ccccc3)NC(=O)[C@H]([C@@H](C)CC)NC(=O)[C@@H](CCCN)NC2=O)[C@@H](C)CC)CS1 (some centres undefined) (X1-L[dE]IK[dOrn]I[dF]H[dD]N; lactam 4-C),active: 12.7 µM,"inconclusive: 0.449 µM [inhibitor, full curve]","inconclusive: 10 µM [inhibitor, single point]",active: 11.3 µM,active: 4 µM,–,inactive,inactive
Cc1ccc(OCCn2c3c(c4ccccc42)CN(C(=O)C2CCCCC2)CC3)cc1,"inconclusive: 14.2 µM [inhibitor, partial curve, poor fit]",active: 1.59 µM,inactive,"inconclusive: 8.96 µM [inhibitor, partial curve]",active: 2.01 µM,–,–,–
Nc1ccc(CNc2ccc([S+](=O)([O-])Nc3nccs3)cc2)c(O)c1,"inconclusive: 8.96 µM [inhibitor, partial curve]","inconclusive: 8.96 µM [inhibitor, partial curve]","inconclusive: 3.98 µM [inhibitor, full curve]",–,–,"inconclusive: 3.55 µM [inhibitor, full curve]",–,–
CCOC(=O)c1[nH]c2c(c1C)C(=S)CC(c1ccco1)C2 (centres undefined),"inconclusive: 10.1 µM [inhibitor, partial curve]",active: 8.96 µM,"inconclusive: 12.6 µM [inhibitor, partial curve]",active: 12.7 µM,active: 2.01 µM,–,–,–
O=C1CCCC2=C1C(c1cccnc1Br)N=C(Nc1nc3ccccc3o1)N2 (centres undefined),"inconclusive: 8.96 µM [inhibitor, partial curve]","inconclusive: 10.1 µM [inhibitor, partial curve]","inconclusive: 12.6 µM [inhibitor, partial curve]","inconclusive: 7.12 µM [inhibitor, full curve]",active: 11.3 µM,–,–,–
Cc1ccc(S(=O)(=O)c2ccc([N+](=O)[O-])cn2)cc1,active: 2 µM,"inconclusive: 8.91 µM [inhibitor, full curve, poor fit]",active: 2 µM,–,–,"inconclusive: 5.01 µM [inhibitor, partial curve]",–,–
